# Some of the results follow. Viral Rep nickase domains cut single-stranded DNA in vitro (1 h at 37 °C, 3 µM enzyme); the outer parts of the 90-letter strands are left off. Values are log2 of uncut reads against the no-enzyme pool; more negative means more cut, near 0 not cut, and no call is made. Because reads are shares of a total, they shift together, so uncut sequences can rise above 0 when many others are cut.
# Tests used:
# Assay in all cases: uncleaved DNA left, log2 of reads against the no-enzyme library (log2 ratio); higher = less cleavage (more negative = more Rep cleavage of the k-mer); sequences stand for … in CTCGTCCG…ACCGGAGA
# [1] = tested on: T1, Rep nickase domain of Muscovy duck circovirus
# T1 sequence (Rep 1-111, printed without the tag): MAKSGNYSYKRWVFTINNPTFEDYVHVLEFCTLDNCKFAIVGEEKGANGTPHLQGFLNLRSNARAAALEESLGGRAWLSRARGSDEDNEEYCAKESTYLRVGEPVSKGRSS
# Procedure: (§1)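 A pool of 90-nt single-stranded DNAs with seven random bases just before the constant AC of the nick site (name = the seven bases) was cut by 3 µM recombinant His6-SUMO-tagged Rep nickase domain (300 nM DNA, 50 mM HEPES pH 8.0, 50 mM NaCl, 1 mM MnCl2, 1 h, 37 °C, three replicates). Uncut DNA was amplified and sequenced.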
# [2] = tested on: T2, Rep nickase domain of banana bunchy top virus
# T2 sequence (Rep 1-94, printed without the tag): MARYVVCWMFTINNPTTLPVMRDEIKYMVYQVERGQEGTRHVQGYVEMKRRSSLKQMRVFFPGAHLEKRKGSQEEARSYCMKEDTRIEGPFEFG
# Procedure: as §1
# [3] = tested on: T3, Rep nickase domain of cabbage leaf curl virus
# T3 sequence (Rep 1-116, printed without the tag): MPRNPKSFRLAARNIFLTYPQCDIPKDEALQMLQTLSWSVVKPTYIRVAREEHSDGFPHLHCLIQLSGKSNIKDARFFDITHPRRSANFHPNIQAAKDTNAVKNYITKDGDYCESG
# Procedure: as §1
# [4] = tested on: T4, Rep nickase domain of chickpea chlorotic dwarf virus
# T4 sequence (Rep 1-124, printed without the tag): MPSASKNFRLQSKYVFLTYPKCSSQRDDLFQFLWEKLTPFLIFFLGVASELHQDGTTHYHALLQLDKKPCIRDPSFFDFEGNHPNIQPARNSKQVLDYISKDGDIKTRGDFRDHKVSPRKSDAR
# Procedure: as §1
# [5] = tested on: T5, Rep nickase domain of faba bean necrotic yellows virus
# T5 sequence (Rep 1-98, printed without the tag): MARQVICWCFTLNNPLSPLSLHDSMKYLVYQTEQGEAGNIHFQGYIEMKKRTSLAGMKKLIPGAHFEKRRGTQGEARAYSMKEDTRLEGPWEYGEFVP
# Procedure: as §1
# [6] = tested on: T6, Rep nickase domain of maize striate mosaic virus
# T6 sequence (Rep 1-117, printed without the tag): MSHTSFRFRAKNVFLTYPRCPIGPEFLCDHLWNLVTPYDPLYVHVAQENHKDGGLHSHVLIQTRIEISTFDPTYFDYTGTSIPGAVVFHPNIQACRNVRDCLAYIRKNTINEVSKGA
# Procedure: as §1
# [7] = tested on: T7, Rep nickase domain of porcine circovirus 2
# T7 sequence (Rep 2-116, printed without the tag): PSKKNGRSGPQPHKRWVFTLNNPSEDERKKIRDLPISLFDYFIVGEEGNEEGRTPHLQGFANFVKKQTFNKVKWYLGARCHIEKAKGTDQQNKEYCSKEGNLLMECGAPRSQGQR
# Procedure: as §1
# [8] = tested on: T8, Rep nickase domain of tomato yellow leaf curl virus
# T8 sequence (Rep 1-136, printed without the tag): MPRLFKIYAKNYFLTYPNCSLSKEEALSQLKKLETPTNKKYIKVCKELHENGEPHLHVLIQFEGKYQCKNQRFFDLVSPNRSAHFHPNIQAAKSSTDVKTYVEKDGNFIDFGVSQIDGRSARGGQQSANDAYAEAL
# Procedure: as §1
# [9] = tested on: T9, Rep nickase domain of wheat dwarf virus
# T9 sequence (Rep 1-137, printed without the tag): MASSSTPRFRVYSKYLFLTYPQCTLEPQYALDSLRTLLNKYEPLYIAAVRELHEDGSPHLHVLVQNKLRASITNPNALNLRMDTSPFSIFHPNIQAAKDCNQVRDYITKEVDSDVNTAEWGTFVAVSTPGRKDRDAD
# Procedure: as §1
Sequence,uncleaved DNA left (log2) [1],uncleaved DNA left (log2) [2],uncleaved DNA left (log2) [3],uncleaved DNA left (log2) [4],uncleaved DNA left (log2) [5],uncleaved DNA left (log2) [6],uncleaved DNA left (log2) [7],uncleaved DNA left (log2) [8],uncleaved DNA left (log2) [9]
ACTAGGG,-0.0113,-0.00838,-0.667,-0.442,0.0297,-0.956,0.183,0.00948,-0.0169
ATCCCAA,0.0453,0.0323,0.0544,-0.142,-0.014,-0.576,-0.0444,-0.0558,0.0641
TAGACCC,0.0795,0.00948,0.607,1.42,0.0143,1.88,0.0346,0.169,0.115
CGAACTC,0.0428,0.0628,0.092,0.374,-0.0799,0.625,0.124,0.0792,0.0568
GACTAAG,0.116,0.0493,-0.575,-0.416,0.0349,-1.17,0.0837,0.0776,0.0522
AGGGTCA,-0.0767,-0.00339,0.265,0.908,-0.0873,1.32,-0.0546,-0.0255,0.0288
CCGGATC,-0.22,-0.209,0.149,0.411,-0.369,0.647,0.0351,-0.191,-0.144
CCTGCCA,-0.0773,0.0223,-0.163,-0.863,0.00498,-0.634,-0.0243,0.00822,-0.136
GGTCGAC,0.00664,0.083,0.793,1.82,0.0507,2.16,0.264,0.0347,0.136
ACCATAT,0.14,-0.125,-0.409,-0.929,0.0801,-1.18,-0.0648,-0.109,-0.152
AGCTGGT,0.0431,0.054,0.273,1.05,0.0509,1.37,-0.842,0.0332,0.042
ATCCGCC,-0.0505,-0.0106,-0.146,-0.252,0.059,-0.789,0.149,0.00975,-0.0619
AAGTCAC,0.0591,0.065,-0.121,-0.662,0.00365,-0.425,-2.95,0.0292,0.0459
ATACGAA,0.0587,-0.0115,-0.0427,-0.459,0.0935,-0.687,0.167,-0.0165,0.0925
CTCCGGA,0.0112,0.00638,0.198,0.453,-0.0778,0.428,0.141,0.000869,-0.016
ATAACTT,-0.0596,-0.055,-0.221,-2.79,0.0358,-0.518,-0.442,-0.125,-0.047
ACGTGAC,-0.0203,-0.0967,-0.105,0.263,-0.0646,-0.269,0.0889,-0.185,-0.0492
TTGGAGC,-0.0502,-0.106,-0.164,-0.334,0.0196,-0.821,0.0568,-0.0513,-0.0417
CCTTGTG,-0.137,-0.0804,-0.675,0.522,0.0413,-0.656,0.0539,0.0229,-0.141
GTGTTTG,-0.0209,0.0143,0.012,0.295,-0.0389,0.0807,0.0485,-0.0367,-0.0802

Sequence,uncleaved DNA left (log2) [1],uncleaved DNA left (log2) [2],uncleaved DNA left (log2) [3],uncleaved DNA left (log2) [4],uncleaved DNA left (log2) [5],uncleaved DNA left (log2) [6],uncleaved DNA left (log2) [7],uncleaved DNA left (log2) [8],uncleaved DNA left (log2) [9]
GCGCGCT,0.165,0.014,-0.272,-0.325,0.0649,-0.319,0.0736,-0.00965,-0.227
ACGCGTA,0.0405,-0.0178,-0.578,-1.01,0.0694,-1.01,0.132,0.103,0.0104
TTGCTTG,-0.239,-0.048,-0.719,-0.996,0.0911,-1.1,0.00358,-0.0225,-0.154
CCCCCTG,-0.0931,-0.000193,-0.276,-0.433,-0.173,-0.347,-0.208,-0.158,-0.0231
TTACCGC,-0.0957,-0.0142,-0.128,0.534,-0.0151,0.363,-0.542,0.0146,-0.0459
CCGGACA,-0.195,-0.122,0.507,1.14,-0.136,1.75,-0.0873,-0.122,-0.137
CTTGATC,-0.0544,0.0772,-0.0479,-0.0602,-0.015,-0.898,-0.0382,-0.033,0.0685
TAATATT,-4.3,-4.34,-5.48,-2.62,-3.88,-4.85,-4.76,-4.04,-5.51
ATCCTAG,0.0186,-0.0845,-0.689,-0.598,0.0257,-1.02,0.275,0.0444,-0.0342
GATAGCC,-0.0428,0.013,0.0893,0.405,0.00794,-0.211,0.162,0.0831,0.094
CCATGCG,-0.0368,-0.146,-0.239,1.32,-0.0856,0.876,0.0725,-0.0741,-0.0665
GTCCATT,0.1,0.0549,0.352,0.97,0.117,1.7,0.0382,0.0836,0.269
CGATGAA,0.00469,-0.0899,0.0308,0.365,-0.0801,0.422,-0.0287,-0.0714,-0.0299
ACCTCGC,-0.165,-0.178,-0.791,-0.713,-0.177,-1.28,-0.0877,-0.259,-0.187
TTGTAGA,-0.0313,0.0099,-0.0592,-0.389,0.0545,-0.963,0.0456,0.0442,-0.0735
TCACACT,-0.111,-0.0103,-0.775,-2.74,-0.113,-0.791,-0.123,0.00217,-0.408
TCAACTA,-0.0183,0.00745,-0.136,-2.25,0.0206,-0.473,-0.146,-0.00984,0.0296
TCGGCCC,0.0867,0.037,0.177,0.134,0.041,0.0448,-0.129,0.0619,0.00557
AGTCGTA,-0.0616,-0.17,-0.22,-0.714,-0.199,-0.664,-2.27,-0.0597,-0.13
TGCTGTG,-0.0198,-0.106,-0.6,-0.578,0.0887,-0.983,0.0506,-0.0324,-0.0293

Sequence,uncleaved DNA left (log2) [1],uncleaved DNA left (log2) [2],uncleaved DNA left (log2) [3],uncleaved DNA left (log2) [4],uncleaved DNA left (log2) [5],uncleaved DNA left (log2) [6],uncleaved DNA left (log2) [7],uncleaved DNA left (log2) [8],uncleaved DNA left (log2) [9]
CTCATAC,0.072,-0.0481,-0.248,-0.991,-0.121,-0.821,-0.0997,-0.0276,-0.0996
GAGGCTT,-0.115,0.0294,0.674,1.26,-0.115,2.03,-1.91,0.0441,0.109
GTTATTT,0.02,0.113,0.297,0.724,-0.0301,1.73,0.0202,-0.00735,0.116
AAGTCCG,-0.0379,0.0048,-0.788,-0.58,-0.0632,-1.04,-0.236,-0.0329,-0.057
GCCGAGT,-0.251,0.0251,0.676,1.11,0.0448,1.36,0.0927,0.0258,0.0589
TAGGAGC,0.0163,0.0418,0.153,0.43,0.0165,0.145,0.0654,0.0228,0.021
GCCATGG,-0.104,-0.112,-0.359,-0.00926,-0.0804,-0.828,0.0543,-0.118,-0.127
CGGTCCA,0.0949,0.164,0.287,-0.0266,0.102,0.32,-0.115,0.193,0.238
TCCAATC,0.0659,0.224,0.0581,0.229,0.0891,-0.177,0.224,0.18,0.156
GGAGTCC,-0.0503,0.105,0.629,1.25,-0.0333,1.84,-0.0116,0.0668,0.24
TGTCGTC,0.033,0.0661,0.0939,0.132,-0.0548,-0.204,0.0978,-0.0067,-0.0319
TGTGCTT,0.0209,-0.0409,0.0965,-0.995,0.0264,-0.0766,-0.0485,-0.0119,-0.0867
CAATTTG,0.109,-0.15,-0.757,-0.707,0.0966,-1.23,0.0811,0.0854,-0.108
TTTCGCA,-0.139,-0.145,-0.435,-1.18,-0.0965,-1.03,-0.272,-0.123,-0.0689
TTGGGTA,-0.121,-0.142,-0.118,0.00783,-0.0389,-0.179,-0.0887,-0.156,-0.232
TTTTACG,0.00428,0.0781,-0.869,-1.04,0.13,-1.07,0.123,0.00433,-0.024
AGTGTTC,0.00159,-0.0702,0.0843,-0.868,-0.152,0.194,-0.228,-0.109,-0.0595
AGCTGCT,-0.153,-0.0432,-0.12,0.386,-0.0841,0.272,-1.9,0.054,0.0235
ACATTAC,-0.0172,0.0838,-0.313,-1.7,0.021,-0.922,0.0811,-0.0956,-0.0408
CTACTAG,0.0302,-0.0836,-0.862,-1.23,0.0682,-1.13,0.0869,0.095,-0.0496

# Reference: the supplement of paper PMC7826260
